{"source": "PubChem BioAssay AID463173", "about": "(ICCB-Longwood Screening Facility, Harvard Medical School, 2010)", "note": "Hit rate of the full screen: of about 52,000 compounds, about 4,300 (8.3%) were called active. No stated cut-off is given here; in the data, active means survival mostly below about 52% (no sharp cut-off); inactive means mostly above about 56%. This is one part of the list.", "data": [{"tested_on": "DeltatarO mutant", "assay": "S. aureus survival, RN4220 and DeltatarO strains – OD600, teichoic acid synthesis inhibitors, primary screen (AID 463173)", "conditions": "S. aureus RN4220 wild type/DeltatarO growth, OD600, 18 h, active compounds read low, screened at 18.75 µg/mL (by protocol)", "values": [{"compound": "Cc1cccc(N2CCN(C(c3ccc(F)cc3)c3nnc(-c4ccccc4)o3)CC2)c1C", "note": "(stereo not drawn)", "survival": "active: 39%"}, {"compound": "COc1cccc(N2CCN(C(=O)c3cnc4c(C)cccn4c3=O)CC2)c1", "survival": "inactive: 84%"}, {"compound": "CC(C)Oc1ccc(CNC(=O)C2CCN(C(=O)N3CCOc4ccc(Cl)cc43)CC2)cc1", "survival": "inactive: 48%"}, {"compound": "CCC(c1nnnn1C(C)(C)CC)N(Cc1cc2ccc(C)cc2[nH]c1=O)C1CCCC1", "note": "(stereo not drawn)", "survival": "inactive: 92%"}, {"compound": "Cc1ccccc1-c1nc(NC(=O)CSc2ncnc3sc4c(c23)CCCC4)ns1", "survival": "inactive: 92%"}, {"compound": "Cc1cccc(NC(=O)CSc2nc3ccccc3c3nc(CCn4cncc4C)nn23)c1", "survival": "inactive: 78%"}, {"compound": "CC(C)c1ccc(NC(=O)c2cc3c(=O)oc4ccccc4c3s2)cc1", "survival": "inactive: 46%"}, {"compound": "CCOc1ccc(CCNC(=O)c2cc3c(=O)n(C)c4ccccc4c3s2)cc1OCC", "survival": "inactive: 56%"}, {"compound": "COc1ccccc1NC(=O)c1sc2cccc(Cl)c2c1Cl", "survival": "inactive: 64%"}, {"compound": "O=C(c1cccnc1)N1CCC(Cc2ccccc2)CC1", "survival": "inactive: 104%"}, {"compound": "CCCC12CN3CC(C)(CN(C1)C3c1ccc(CC)cc1)C2=O", "note": "(stereo not drawn)", "survival": "inactive: 87%"}, {"compound": "CCc1ccc(OCC(=O)NCC(c2ccc(Cl)cc2)N2CCOCC2)cc1", "note": "(stereo not drawn)", "survival": "inactive: 93%"}, {"compound": "O=S(=O)(Nc1ccc(-c2ccc(N3CCCCCC3)nn2)cc1)c1ccc(C(F)(F)F)cc1", "survival": "inactive: 101%"}, {"compound": "Cc1nn(-c2ccccc2)c2c1cc1c(=O)[nH]c(=O)nc-1n2-c1cccc(C(F)(F)F)c1", "survival": "inactive: 121%"}, {"compound": "Cc1ccc(-n2nc3c(=O)n(CCCC(=O)NCc4ccc(F)cc4)nc(C)c3c2C)cc1", "survival": "inactive: 78%"}, {"compound": "Cc1cc(C)c(S(=O)(=O)NCC(c2ccco2)N2CCN(c3ccccc3)CC2)c(C)c1", "note": "(stereo not drawn)", "survival": "inactive: 77%"}, {"compound": "O=C(CN1CCN(Cc2ccc(F)cc2)C1=O)NCc1ccccc1", "survival": "inactive: 107%"}, {"compound": "Cc1ccccc1SCC(=O)O", "survival": "inactive: 72%"}, {"compound": "Cc1ccc2c(c1)-c1onc(C(=O)N3CCN(c4cccc(C)c4C)CC3)c1CO2", "survival": "inactive: 68%"}, {"compound": "CCCCN(CCCC)C(=O)c1cc2c(=O)n3ccccc3nc2s1", "survival": "active: 39%"}, {"compound": "CCCC1C2CN(C(C)C)CC=C2C(C#N)=C(N)C1(C#N)C#N", "note": "(stereo not drawn)", "survival": "inactive: 79%"}, {"compound": "Cc1cccc(N2CCN(S(=O)(=O)c3ccc(F)c(C(=O)Nc4cccc(Cl)c4C)c3)CC2C)c1", "note": "(stereo not drawn)", "survival": "inactive: 85%"}, {"compound": "CCNC(=O)c1c(NC(=O)c2cc(=O)c3ccc(C)c(C)c3o2)sc2c1CCCC2", "survival": "inactive: 66%"}, {"compound": "CC1CCCCN1S(=O)(=O)c1ccc(NC(=O)C2COc3ccccc3O2)cc1", "note": "(stereo not drawn)", "survival": "inactive: 97%"}, {"compound": "O=C(NC1CC2CCC(C1)N2C(=O)NC1CCCCC1)NC12CC3CC(CC(C3)C1)C2", "note": "(stereo not drawn)", "survival": "inactive: 75%"}, {"compound": "COc1ccccc1C(OC(=O)c1ccco1)C(=O)NCC1CCCO1", "note": "(stereo not drawn)", "survival": "inactive: 85%"}, {"compound": "Cc1ccccc1CSc1nc(-c2ccccc2)nc2c1Cc1c(CO)cnc(C)c1O2", "survival": "inactive: 106%"}, {"compound": "COc1cccc(C(=O)NCC(c2ccc(N(C)C)cc2)N2CCOCC2)c1OC", "note": "(stereo not drawn)", "survival": "inactive: 124%"}, {"compound": "CC[N+](C)(C)Cc1ccco1", "survival": "inactive: 80%"}, {"compound": "Cc1cccc(OCC(=O)N(Cc2cccc(Cl)c2)Cc2ccco2)c1C", "survival": "inactive: 69%"}, {"compound": "CC(C)S(=O)(=O)c1oc(-c2ccc(F)cc2)nc1S(=O)(=O)c1ccc(F)cc1", "survival": "active: 22%"}, {"compound": "COc1ccc2cc(-c3cn4c(n3)sc3cc(F)ccc34)c(=O)oc2c1", "survival": "inactive: 77%"}, {"compound": "Cc1ccc(S(=O)(=O)c2nc(-c3ccccc3)oc2N2CCCCCC2)cc1", "survival": "active: 22%"}, {"compound": "Cc1ccc(S(=O)(=O)N2CC=C(c3ccc(F)cc3)CC2)cc1", "survival": "inactive: 87%"}, {"compound": "Cc1ccc(C)c(N2CCN(C(=O)c3cc(S(=O)(=O)N4CCCCC4)cn3C)CC2)c1", "survival": "inactive: 71%"}, {"compound": "COc1ccc2[nH]cc(CCNC(=O)Nc3ccc(F)cc3)c2c1", "survival": "inactive: 87%"}, {"compound": "O=C(c1ccc(CSc2nc3ccncc3n2Cc2ccccc2F)cc1)N1CCCCCC1", "survival": "inactive: 69%"}, {"compound": "CCCC(=O)Nc1nnc(SCc2cc(=O)c3cc(C)ccc3[nH]2)s1", "survival": "inactive: 75%"}, {"compound": "CC(C)CCNC(=O)N1CCN(S(=O)(=O)c2ccc3c(ccn3C)c2)CC1", "survival": "inactive: 89%"}, {"compound": "CCCCNC(=O)CCn1c(=O)c2ccccc2n(Cc2cc(C)ccc2C)c1=O", "survival": "inactive: 83%"}, {"compound": "COc1cccc(C2=NN(C(C)=O)C(c3cn(-c4ccccc4)nc3-c3cccs3)C2)c1", "note": "(stereo not drawn)", "survival": "inactive: 170%"}, {"compound": "CCOc1ccc(CCNC(=O)CCc2cn(Cc3ccc(C)cc3)c3ccccc23)cc1", "survival": "inactive: 69%"}, {"compound": "CCC(=O)Nc1ccccc1-c1nc2ccccc2n(C(CC)C(=O)Nc2cccc(C(C)=O)c2)c1=O", "note": "(stereo not drawn)", "survival": "inactive: 91%"}, {"compound": "CCCCN(CC)CCCn1cnc2c([nH]c3ccc(Cl)cc32)c1=O", "survival": "inactive: 110%"}, {"compound": "CC(C)(C)C1CCc2nc(NC(=O)COc3ccc(F)cc3)sc2C1", "note": "(stereo not drawn)", "survival": "inactive: 115%"}, {"compound": "O=C(N/N=C/c1ccco1)C1CN(S(=O)(=O)c2ccccc2)CCN1S(=O)(=O)c1ccccc1", "note": "(stereo not drawn)", "survival": "active: 1%"}, {"compound": "CC(=O)Nc1ccc(-n2cc3c(c2-c2ccc(C)cc2)c(=O)n(C)c(=O)n3C)cc1", "survival": "inactive: 92%"}, {"compound": "CC(C)(C)c1ccc(OCCSc2nc(-c3cccs3)nc3cc(=O)[nH]n23)cc1", "survival": "inactive: 78%"}, {"compound": "Cc1oc(-c2ccc(C(=O)Nc3ccc(F)cc3F)cc2)nc1COc1ccccc1", "survival": "inactive: 89%"}, {"compound": "O=C(Cn1ncc2c3ccccc3n(Cc3ccc(Cl)cc3)c2c1=O)NCCCc1ccccc1", "survival": "inactive: 93%"}, {"compound": "COc1ccc(Nc2oc(-c3ccc(COc4ccc(OC)cc4)o3)nc2C#N)cc1", "survival": "inactive: 64%"}, {"compound": "Cc1csc(N(C)C(=O)CSc2nnc(COc3cccc4ccccc34)o2)n1", "survival": "inactive: 56%"}, {"compound": "CC(C)c1ccc(Nc2cc(C(=O)NCCc3ccccc3)c3ccccc3n2)cc1", "survival": "inactive: 81%"}, {"compound": "CCC12C=CCN3CCC4(c5ccc(OC)cc5NC4C(O)(C(=O)OC)C1OC(C)=O)C32", "note": "(stereo not drawn)", "survival": "inactive: 88%"}, {"compound": "NCC1OCCc2ccccc21", "note": "(stereo not drawn)", "survival": "inactive: 84%"}, {"compound": "CCc1ccccc1N1CC(c2nc3ccccc3n2CC(C)C)CC1=O", "note": "(stereo not drawn)", "survival": "inactive: 78%"}, {"compound": "CCC(C)NC(=O)C1CCN(C(=O)c2cc3sccc3n2Cc2ccc(Cl)cc2)CC1", "note": "(stereo not drawn)", "survival": "active: 45%"}, {"compound": "Cc1ccc(C)c(S(=O)(=O)c2nnn3c2nc(N2CCCC2)c2sccc23)c1", "survival": "inactive: 86%"}]}]}
